The full ranking holds about 1,400 sequences; the median of “thermal melting temperature (Tm) of peptide-HLA complex” is about 60, and the lowest 2% start at about 45. This is one part of the list.
B1: unnamed (peptide)
chain: RPLTKNAL
B2: unnamed (peptide)
chain: RPRNVPVIT
B3: unnamed (peptide)
chain: NPYSRLMAL
B4: unnamed (peptide)
chain: LPAGSRVEL
B5: unnamed (peptide)
chain: IPAKPPVSF
B6: unnamed (peptide)
chain: IPKPLNPAL
B7: unnamed (peptide)
chain: RPKALTQVL
B8: unnamed (peptide)
chain: LPWPARPAL
B9: unnamed (peptide)
chain: IVDSARSIL
B10: unnamed (peptide)
chain: QPRNLLLAL
B11: unnamed (peptide)
chain: LPSLSAHEL
B12: unnamed (peptide)
chain: IPNERTMQL
B13: unnamed (peptide)
chain: NPASPPLSL
B14: unnamed (peptide)
chain: RPQRATSNVF
B15: unnamed (peptide)
chain: APDSQRLKLL
B16: unnamed (peptide)
chain: TPKNTSVSL
B17: unnamed (peptide)
chain: IPRPVDGVEV
B18: unnamed (peptide)
chain: SPRVTVAQL
B19: unnamed (peptide)
chain: RPYGVGLLI
B20: unnamed (peptide)
chain: APGPPGRSM
B21: unnamed (peptide)
chain: GPHSPILSL
B22: unnamed (peptide)
chain: WPYGNRQEI
B23: unnamed (peptide)
chain: KPRDVTNFTV
B24: unnamed (peptide)
chain: TPRIQGLTV
B25: unnamed (peptide)
chain: LPRSTVINI
B26: unnamed (peptide)
chain: APSPLQPAL
B27: unnamed (peptide)
chain: VPYGTPLSV
B28: unnamed (peptide)
chain: MPKVKTIEL
B29: unnamed (peptide)
chain: APRLQSEVA
B30: unnamed (peptide)
chain: LPRLLPAL
B31: unnamed (peptide)
chain: TPSSSRLEL
B32: unnamed (peptide)
chain: TPRPVTEPLL
B33: unnamed (peptide)
chain: FPELPKSAL
B34: unnamed (peptide)
chain: SPDPLRPLEFL
B35: unnamed (peptide)
chain: QPDQTRIVAL
B36: unnamed (peptide)
chain: SPKLPVSSL
B37: unnamed (peptide)
chain: RPRLTSNEKL
B38: unnamed (peptide)
chain: RPRPPTLL
B39: unnamed (peptide)
chain: SPRLSQTFL
B40: unnamed (peptide)
chain: SPILPITEF
B41: unnamed (peptide)
chain: SPALPGLKL
B42: unnamed (peptide)
chain: VPAARSILAL
B43: unnamed (peptide)
chain: VPRQPTVTSV
B44: unnamed (peptide)
chain: HPRTSITVV
B45: unnamed (peptide)
chain: SPGRLAVL
B46: unnamed (peptide)
chain: KPNPNQIISV
B47: unnamed (peptide)
chain: SPRITFPSL
B48: unnamed (peptide)
chain: YPEPRVLTL
B49: unnamed (peptide)
chain: MPARWLTHL
B50: unnamed (peptide)
chain: YPFFRGVTI
B51: unnamed (peptide)
chain: VPYLRDLGL
B52: unnamed (peptide)
chain: NPRNFSDNQL
B53: unnamed (peptide)
chain: KPIQRTILM
B54: unnamed (peptide)
chain: QPREPQVYTL
B55: unnamed (peptide)
chain: KPYQTMLVL
B56: unnamed (peptide)
chain: RPSTPHTITL

target: HLA-B*07:02; experiment: thermal melting temperature (Tm) of peptide-HLA complex; higher = more thermostable pHLA complex; conditions: C1R-B*07:02
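Also: cell lysates heated 10 min at 37–73 °C, remaining pHLA pulled down with pan-class I antibody, peptides quantified by DIA-MS versus 37 °C, Tm where half the complex is lost.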

| Sequence | thermal melting temperature [°C] |
| --- | --- |
| B1 | 60 |
| B2 | 48.3 |
| B3 | 61.3 |
| B4 | 60.2 |
| B5 | 62 |
| B6 | 59.5 |
| B7 | 61 |
| B8 | 61.8 |
| B9 | 57.8 |
| B10 | 61.2 |
| B11 | 57.3 |
| B12 | 60.9 |
| B13 | 62.2 |
| B14 | 58.2 |
| B15 | 60.1 |
| B16 | 56 |
| B17 | 60.3 |
| B18 | 59.5 |
| B19 | 59 |

| Sequence | thermal melting temperature [°C] |
| --- | --- |
| B20 | 58.4 |
| B21 | 58.7 |
| B22 | 59.3 |
| B23 | 56.5 |
| B24 | 60.4 |
| B25 | 59.9 |
| B26 | 62.8 |
| B27 | 62.6 |
| B28 | 56.4 |
| B29 | 55.9 |
| B30 | 60.8 |
| B31 | 57.8 |
| B32 | 61.3 |
| B33 | 61.1 |
| B34 | 61.7 |
| B35 | 61.1 |
| B36 | 62.6 |
| B37 | 56.7 |
| B38 | 62.9 |

| Sequence | thermal melting temperature [°C] |
| --- | --- |
| B39 | 60.5 |
| B40 | 62.1 |
| B41 | 62.1 |
| B42 | 62.7 |
| B43 | 58.6 |
| B44 | 55.7 |
| B45 | 58.8 |
| B46 | 57.5 |
| B47 | 62.3 |
| B48 | 60 |
| B49 | 55 |
| B50 | 61.8 |
| B51 | 63.1 |
| B52 | 53 |
| B53 | 59.4 |
| B54 | 57.9 |
| B55 | 61.6 |
| B56 | 59.3 |

Source: the supplement of paper PMC7726561
